From publication PMC6919601, “Identification of Plasmodium dipeptidyl aminopeptidase allosteric inhibitors by high throughput screening” (PLoS ONE, 2019)
Out of some 110,000 compounds screened, about 230 (0.21%) showed an effect of 50% or more. This is one part of the list.

The molecules below were run against DPAP1 (Plasmodium falciparum, UniProt Q8IIJ9) (assay: primary screen, percent inhibition; read by cleavage of a fluorogenic dipeptide substrate; higher = more effect of the substance).
Parameters: species or system P. falciparum D10 trophozoite lysates; single well
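Further: 30 min substrate incubation versus DMSO and 10 µM JCP410 controls.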

Sequence of DPAP1 (Q8IIJ9 whole entry, looked up): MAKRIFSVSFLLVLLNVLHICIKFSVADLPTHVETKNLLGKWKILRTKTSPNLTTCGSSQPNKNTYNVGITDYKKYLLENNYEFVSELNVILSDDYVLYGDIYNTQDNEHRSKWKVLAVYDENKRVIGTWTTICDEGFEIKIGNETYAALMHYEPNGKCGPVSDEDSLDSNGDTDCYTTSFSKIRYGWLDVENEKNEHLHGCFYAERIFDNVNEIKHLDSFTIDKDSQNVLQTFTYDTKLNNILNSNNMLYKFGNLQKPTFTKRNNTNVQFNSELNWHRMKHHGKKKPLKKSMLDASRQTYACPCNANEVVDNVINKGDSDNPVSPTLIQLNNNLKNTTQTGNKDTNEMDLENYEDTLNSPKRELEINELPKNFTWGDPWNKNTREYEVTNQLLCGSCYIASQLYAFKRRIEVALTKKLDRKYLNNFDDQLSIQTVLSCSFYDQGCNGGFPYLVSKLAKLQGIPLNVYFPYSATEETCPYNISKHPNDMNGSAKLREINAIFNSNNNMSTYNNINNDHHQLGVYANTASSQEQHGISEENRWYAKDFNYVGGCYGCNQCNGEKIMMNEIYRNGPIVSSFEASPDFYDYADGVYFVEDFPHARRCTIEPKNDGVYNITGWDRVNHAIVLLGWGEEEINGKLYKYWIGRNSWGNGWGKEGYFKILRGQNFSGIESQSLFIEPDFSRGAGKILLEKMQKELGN

| SMILES | % Inhibition @ 10 uM |
| --- | --- |
| Cn1c(=O)c2c(-c3ccccc3Cl)n(-c3ccccc3O)cc2n(C)c1=O | 5.17% |
| CC(C)CCNC(=O)Cn1c(SCc2cccc(F)c2)nc2ccncc21 | 2.65% |
| O=C(O)c1ccc(NC(=O)c2ccc(S(=O)(=O)N3CCCCCC3)cc2)cc1 | -4.43% |
| O=C1C(c2ccc(F)cc2)N(Cc2cccs2)C(=O)CN1C1CCCCC1 (stereo not drawn) | -3.94% |
| Cc1sc2c(c1C)c1nnc(S)n1c1nnc(S)n21 | 0.0069% |
| COc1ccccc1CNc1ccc(C(=O)O)cc1 | 3.29% |
| Cc1n[nH]c(C)c1CCCCOc1ccccc1Cl | -2.78% |
| CCN(CC)c1ncnc2scc(CC(C)C)c12 | 0.812% |
| Clc1ccc2nc(-c3ccccc3)nc(N3CCCCC3)c2c1 | 4.66% |
| O=C(Nc1ccc(Nc2ccccc2)cc1)C1CC1 | -3.41% |
| CS(=O)(=O)N(Cc1ccc(C(=O)Nc2ccc3ccccc3c2)cc1)c1ccccc1 | 0.746% |
| O=C(C1CCN(c2ncnc3c2nc2n3CCCCC2)CC1)N1CCN(c2ccccn2)CC1 | 3.5% |
| CCOC(=O)c1nc(-c2ccc3c(c2)OCO3)no1 | 7.51% |
| O=C(Nc1ccc(-c2nc3ccccc3s2)cc1)c1ccc(Cl)cc1Cl | -0.424% |
| N#Cc1cn(CCOc2ccc(F)cc2)c2ccccc12 | 2.46% |
| Cc1nc(O)c2c(n1)OC(N)=C(C#N)C2c1cccc(Cl)c1Cl (stereo not drawn) | 1.29% |
| CC(C)Nc1nc(NC(C)C)nc(OCCNC(=O)COc2ccc(Cl)cc2Cl)n1 | 4.55% |
| CCOc1cc2c(cc1/C=C1/NC(=O)N(c3ccc(Cl)cc3)C1=O)OCO2 | -15.9% |
| Cc1cc(C)c(C(=O)NCCCN2CCOCC2)c(C)c1 | -4.24% |
| CCOc1ccc(NCC(CC(=O)O)C(=O)O)cc1 (stereo not drawn) | 16.8% |
| CCOC(=O)CSc1ccc2ccccc2n1 | -0.294% |
| N#Cc1c(N)nc2c(c1-c1cccc(Br)c1)CCCCC2 | -3.14% |

| SMILES | % Inhibition @ 10 uM |
| --- | --- |
| O=C(CN(C1CCCCC1)S(=O)(=O)c1ccc(Cl)cc1)N1CCc2ccccc2C1 | -7.09% |
| N#CCNC(=O)[C@@H](Cc1ccccc1F)NC(=O)OCc1ccccc1 | 0.079% |
| Clc1ccc(CCNc2nc3ccccc3c3nncn23)cc1 | 48.8% |
| Cc1ccc(C(=O)CSc2nc(N)c(C#N)c(-c3ccc(O)cc3)c2C#N)cc1 | -2.47% |
| Cc1ccc(C(=O)NCCc2c(C)[nH]c3ccccc23)cc1 | -0.116% |
| O=[N+]([O-])c1ccc(CN2CCCCCC2)cc1 | -0.0404% |
| CCc1ccc(CNC(=O)c2cnc(SC)nc2-c2ccccc2)cc1 | 2.42% |
| O=C(NCC1CCCO1)c1ccc(F)c2ccccc12 (stereo not drawn) | -7.3% |
| CSc1ccc(CN2CCN(C)CC2)cc1 | 4.81% |
| COc1ccc(-c2noc(NC(C)c3ccc4c(c3)OCCO4)n2)cc1 (stereo not drawn) | 3.54% |
| COc1ccc(CCNS(=O)(=O)c2c(C)cc(C)c(-n3cnnn3)c2C)cc1OC | -2.63% |
| COCCNC(=O)CN(Cc1ccccc1)S(=O)(=O)c1ccccc1 | -3.41% |
| COCCCNc1oc(-c2cccs2)nc1S(=O)(=O)c1ccc(Cl)cc1 | -3.18% |
| NS(=O)(=O)c1ccc(NC(=O)c2ccc([N+](=O)[O-])o2)cc1 | 4.26% |
| O=C(CNS(=O)(=O)c1ccccc1)Nc1ccc2c(c1)OCO2 | 1.39% |
| CCCCN(Cc1ccco1)S(=O)(=O)c1cc(-c2cc(C)no2)ccc1C | 5.01% |
| CC1=CC(C)(C)C(C(=O)O)C(C(=O)O)C1 (stereo not drawn) | 3.34% |
| O=C(Nc1ccccc1)c1sc(-c2ccccc2)nc1-c1ccccc1 | -3.77% |
| Cc1cc(=O)oc2c(C)c3occ(-c4ccccc4)c3cc12 | -0.958% |
| CS(=O)(=O)Oc1ccc(/C=C2/C(=N)N3C(=NC2=O)SN=C3S(C)(=O)=O)cc1Cl | 0.163% |
| CCn1nc(C(=O)Nc2ccc(C)c(C)c2)c(Cl)c1Cl | -3.16% |
| Cc1ccccc1Cn1ccn(Cc2ccc(Cl)cc2)c(=O)c1=O | -2.88% |

| SMILES | % Inhibition @ 10 uM |
| --- | --- |
| Cc1ccccc1C1=N/C(=C\c2cccn2C)C(=O)O1 | 4.54% |
| CN(C1CCCCC1)C(CNS(=O)(=O)c1ccccc1)c1ccccc1 (stereo not drawn) | 1% |
| COc1ccccc1C(=O)Nc1ccc(C(=O)c2ccccc2)cc1 | -0.884% |
| CCC(C(=O)Nc1ccc(N(CC)CC)cc1)c1ccccc1 (stereo not drawn) | -6.65% |
| CCN1C2=C(C(=O)CC(C)(C)C2)C(c2cc(OC)c(O)c(SC#N)c2)C2=C1CC(C)(C)CC2=O | 6.31% |
| O=C(c1ccc(CS(=O)c2ccccc2)o1)N1CCC2(CC1)OCCO2 (stereo not drawn) | -6.89% |
| CSCCC(C(=O)Nc1cccc2ccccc12)N1C(=O)c2ccccc2C1=O (stereo not drawn) | 2.33% |
| CC(C)CNC(=O)c1cccc(Cn2cc(Cl)cn2)c1 | -6.94% |
| CCc1oc(C(=O)O)cc1CN1CCOCC1 | -7.33% |
| O=C(O)CCCNc1nc(Cl)nc(N2CCCCC2)n1 | -5.51% |
| CC(C)(C)NC(=O)CCS(=O)(=O)c1ccccc1 | -1.84% |
| CCOC(=O)c1c(C)[nH]c(C)c1S(=O)(=O)NCC(=O)Nc1cc(C)nc2ccccc12 | -1.59% |
| COc1ccc(-c2nc3s/c(=C\c4ccc(C)cc4)c(=O)n3n2)cc1OC | 2.24% |
| Cc1ccc2c(c1)c1c(c(=O)n(Cc3ccccc3)c(=O)n1CC(N)=O)n2C | -0.401% |
| C=Cc1ccc(CSc2nc3ncccc3o2)cc1 | 7.72% |
| CCOC(=O)N1CCN(C(=O)CSCc2nc(-c3ccc(CC)cc3)oc2C)CC1 | 0.689% |
| N#Cc1cc2c(nc1SCC(=O)O)CCCCC2 | -0.68% |
| Cc1ccc(C(=O)Nc2cccc(C)c2)cc1 | -5.84% |
| CCOC(=O)c1cc(-c2ccc(F)cc2)n(CC(=O)NCC2CCCO2)c1C (stereo not drawn) | 1.27% |
| Cc1ccc(C(=O)Nc2ccccc2C(N)=O)cc1 | -2.42% |
| CC1=C(C(=O)Nc2cccnc2)C(c2ccncc2)n2nc(-c3ccccc3)nc2N1 (stereo not drawn) | -17% |
| Cc1ccccc1CSc1nc(O)c2[nH]cnc2n1 | -5.18% |
